Experimental data as given in the supplement of paper PMC6828730.
Some of the results follow. Many values rest on one well or one pass, so single values are uncertain.

Assays:
[1] = test system: hiPSC-derived cardiomyocytes; assay: time to death of most cells in well after compound addition (days); higher = less cardiotoxic; settings: screen: 1; 10 µM
[2] = test system: hiPSC-derived cardiomyocytes; assay: time to death of most cells in well after compound addition (days); higher = less cardiotoxic; extreme values may be limits of the assay; settings: 10 µM

Compound: Cc1c(NC(=O)OC[C@@H]2COCCN2)cn2ncnc(Nc3ccc4c(cnn4Cc4cccc(F)c4)c3)c12
- time to death of most cells in well [1]: > 7
- time to death of most cells in well ([2]; screen: 2): 3
- time to death of most cells in well ([2]; screen: 3): > 7
- time to death of most cells in well ([2]; screen: 4): > 7

Compound: NC(=O)Nc1cc(-c2cccc(F)c2)sc1C(=O)N[C@H]1CCCNC1
- time to death of most cells in well [1]: 3
- time to death of most cells in well ([2]; screen: 2): 1.5
- time to death of most cells in well ([2]; screen: 3): 5
- time to death of most cells in well ([2]; screen: 4): 6

Compound: Cc1ccc2nc(NCCN)c3ncc(C)n3c2c1
- time to death of most cells in well [1]: 2
- time to death of most cells in well ([2]; screen: 2): > 7
- time to death of most cells in well ([2]; screen: 3): > 7
- time to death of most cells in well ([2]; screen: 4): > 7

Compound: CCCCOc1c(C(=O)c2c(F)cc(C)cc2F)c[nH]c2nncc1-2
- time to death of most cells in well [1]: 4
- time to death of most cells in well ([2]; screen: 2): 4
- time to death of most cells in well ([2]; screen: 3): 5.5
- time to death of most cells in well ([2]; screen: 4): > 7

Compound: CNC(=O)c1ccccc1Nc1nc(Nc2ccc(N3CCOCC3)cc2OC)ncc1Cl
- time to death of most cells in well [1]: > 7
- time to death of most cells in well ([2]; screen: 2): > 7
- time to death of most cells in well ([2]; screen: 3): > 7
- time to death of most cells in well ([2]; screen: 4): > 7

Compound: O=C(O)c1ccc(-c2c[nH]c3ncc(-c4ccccc4)cc23)cc1C1CCCC1
- time to death of most cells in well [1]: > 7
- time to death of most cells in well ([2]; screen: 2): > 7
- time to death of most cells in well ([2]; screen: 3): > 7
- time to death of most cells in well ([2]; screen: 4): > 7

Compound: O=C1C(c2c(O)[nH]c3ccccc23)=Nc2ccccc21 [Indirubin]
- time to death of most cells in well [1]: > 7
- time to death of most cells in well ([2]; screen: 2): > 7
- time to death of most cells in well ([2]; screen: 3): > 7
- time to death of most cells in well ([2]; screen: 4): > 7

Compound: Cn1c(=O)c(F)c(Nc2ccc(I)cc2F)c2c(=O)n(C[C@@H](O)CO)cnc21
- time to death of most cells in well [1]: > 7
- time to death of most cells in well ([2]; screen: 2): 6
- time to death of most cells in well ([2]; screen: 3): > 7
- time to death of most cells in well ([2]; screen: 4): > 7

Compound: O=c1ccc2ccc(O)c(O)c2o1 [Daphnetin]
- time to death of most cells in well [1]: 4
- time to death of most cells in well ([2]; screen: 2): 5
- time to death of most cells in well ([2]; screen: 3): > 7
- time to death of most cells in well ([2]; screen: 4): > 7

Compound: COc1ccc(N(C(=O)Oc2c(C)cccc2C)c2ccnc(Nc3ccc(N4CCN(C)CC4)cc3)n2)c(OC)c1
- time to death of most cells in well [1]: > 7
- time to death of most cells in well ([2]; screen: 2): > 7
- time to death of most cells in well ([2]; screen: 3): > 7
- time to death of most cells in well ([2]; screen: 4): > 7

Compound: CC(C)(C)NS(=O)(=O)c1cncc(-c2cc(F)c3nc(N)nn3c2)c1
- time to death of most cells in well [1]: 1
- time to death of most cells in well ([2]; screen: 2): 1.5
- time to death of most cells in well ([2]; screen: 3): 3.5
- time to death of most cells in well ([2]; screen: 4): > 7

Compound: Cn1cnc2c(F)c(Nc3ccc(Br)cc3F)c(C(=O)NOCCO)cc21
- time to death of most cells in well [1]: > 7
- time to death of most cells in well ([2]; screen: 2): > 7
- time to death of most cells in well ([2]; screen: 3): > 7
- time to death of most cells in well ([2]; screen: 4): > 7

Compound: CC(C)(C)n1nc(-c2ccc(Cl)cc2)c2c(N)ncnc21
- time to death of most cells in well [1]: 2
- time to death of most cells in well ([2]; screen: 2): 1.5
- time to death of most cells in well ([2]; screen: 3): 3
- time to death of most cells in well ([2]; screen: 4): > 7

Compound: CNC(=O)c1cc(Oc2ccc(NC(=O)Nc3ccc(Cl)c(C(F)(F)F)c3)c(F)c2)ccn1 [Regorafenib (BAY 73-4506)]
- time to death of most cells in well [1]: > 7
- time to death of most cells in well ([2]; screen: 2): 3
- time to death of most cells in well ([2]; screen: 3): 6
- time to death of most cells in well ([2]; screen: 4): > 7

Compound: C[C@H](Nc1ncnc2[nH]cnc12)c1cc2ccc(F)cc2nc1-c1ccccn1
- time to death of most cells in well [1]: > 7
- time to death of most cells in well ([2]; screen: 2): > 7
- time to death of most cells in well ([2]; screen: 3): > 7
- time to death of most cells in well ([2]; screen: 4): > 7

Compound: NC(=O)c1cnc(N[C@@H]2CCCC[C@@H]2N)nc1Nc1cccc(-n2nccn2)c1
- time to death of most cells in well [1]: 3
- time to death of most cells in well ([2]; screen: 2): 4.5
- time to death of most cells in well ([2]; screen: 3): > 7
- time to death of most cells in well ([2]; screen: 4): 4

Compound: CNC(=O)CN1CCC(Oc2cc3c(Nc4cccc(Cl)c4F)ncnc3cc2OC)CC1 [Sapitinib (AZD8931)]
- time to death of most cells in well [1]: > 7
- time to death of most cells in well ([2]; screen: 2): 6
- time to death of most cells in well ([2]; screen: 3): > 7
- time to death of most cells in well ([2]; screen: 4): > 7

Compound: COCCOc1ccc2c(c1)ncn2-c1ccc2cccc(N3CCC(N)CC3)c2n1
- time to death of most cells in well [1]: > 7
- time to death of most cells in well ([2]; screen: 2): 5.5
- time to death of most cells in well ([2]; screen: 3): 5.5
- time to death of most cells in well ([2]; screen: 4): > 7

Compound: O=C(c1ccc(Nc2nccc(-c3cc4ccccc4s3)n2)cc1)N1CCC(N2CCCC2)CC1 [IKK-16 (IKK Inhibitor VII)]
- time to death of most cells in well [1]: 0.5
- time to death of most cells in well ([2]; screen: 2): 1
- time to death of most cells in well ([2]; screen: 3): 1.5
- time to death of most cells in well ([2]; screen: 4): 1

Compound: CCN1CCN(C(=O)Cc2ccc(Nc3ncc(F)c(Nc4ccc(C(=O)Nc5ccccc5Cl)cc4)n3)cc2)CC1 [Aurora A Inhibitor I]
- time to death of most cells in well [1]: 5
- time to death of most cells in well ([2]; screen: 2): > 7
- time to death of most cells in well ([2]; screen: 3): 6
- time to death of most cells in well ([2]; screen: 4): > 7

Compound: COc1cc2ncnc(Nc3ccc(O)c(Br)c3)c2cc1OC
- time to death of most cells in well [1]: > 7
- time to death of most cells in well ([2]; screen: 2): > 7
- time to death of most cells in well ([2]; screen: 3): > 7
- time to death of most cells in well ([2]; screen: 4): > 7

Compound: Fc1cc(-c2cccc3ncc(-c4cnn(C5CCNCC5)c4)nc23)cc(F)c1CN1CCOCC1
- time to death of most cells in well [1]: 5
- time to death of most cells in well ([2]; screen: 2): 3.5
- time to death of most cells in well ([2]; screen: 3): 2.5
- time to death of most cells in well ([2]; screen: 4): 3

Compound: CO[C@H]1C[C@@H]2CC[C@@H](C)[C@@](O)(O2)C(=O)C(=O)N2CCCC[C@H]2C(=O)O[C@H]([C@H](C)C[C@@H]2CC[C@@H](OCCO)[C@H](OC)C2)CC(=O)[C@H](C)/C=C(\C)[C@@H](O)[C@@H](OC)C(=O)[C@H](C)C[C@H](C)/C=C/C=C/C=C/1C [Everolimus (RAD001)]
- time to death of most cells in well [1]: 3.5
- time to death of most cells in well ([2]; screen: 2): > 7
- time to death of most cells in well ([2]; screen: 3): > 7
- time to death of most cells in well ([2]; screen: 4): > 7

Compound: NC(=O)c1ncn([C@@H]2O[C@H](CO)[C@@H](O)[C@H]2O)c1N [AICAR (Acadesine)]
- time to death of most cells in well [1]: 6.5
- time to death of most cells in well ([2]; screen: 2): > 7
- time to death of most cells in well ([2]; screen: 3): > 7
- time to death of most cells in well ([2]; screen: 4): > 7

Compound: Cn1cc(-c2ccc3ncc(Cc4ccc5ncccc5c4)n3n2)cn1
- time to death of most cells in well [1]: > 7
- time to death of most cells in well ([2]; screen: 2): > 7
- time to death of most cells in well ([2]; screen: 3): > 7
- time to death of most cells in well ([2]; screen: 4): > 7

Compound: CS(=O)(=O)N1CCc2c(-c3cnc(N)nc3)nc(N3CCOCC3)nc21
- time to death of most cells in well [1]: 5
- time to death of most cells in well ([2]; screen: 2): 3.5
- time to death of most cells in well ([2]; screen: 3): > 7
- time to death of most cells in well ([2]; screen: 4): > 7

Compound: CCN1CCN(Cc2ccc(-c3cc4c(N[C@H](C)c5ccccc5)ncnc4[nH]3)cc2)CC1
- time to death of most cells in well [1]: 2.5
- time to death of most cells in well ([2]; screen: 2): 2
- time to death of most cells in well ([2]; screen: 3): 3
- time to death of most cells in well ([2]; screen: 4): 4

Compound: CCOc1cc(C(=O)N2CCC(N3CCN(C)CC3)CC2)ccc1Nc1ncc2c(n1)N(C1CCCC1)c1ccccc1C(=O)N2C
- time to death of most cells in well [1]: 4
- time to death of most cells in well ([2]; screen: 2): 1
- time to death of most cells in well ([2]; screen: 3): 1.5
- time to death of most cells in well ([2]; screen: 4): 3

Compound: CNS(=O)(=O)C[C@H]1CC[C@H](N(C)c2[nH]cnc3nccc2-3)CC1 [Oclacitinib]
- time to death of most cells in well [1]: > 7
- time to death of most cells in well ([2]; screen: 2): 5.5
- time to death of most cells in well ([2]; screen: 3): > 7
- time to death of most cells in well ([2]; screen: 4): > 7

Compound: COc1cc2ncnc(Oc3ccc(CC(=O)Nc4cnn(C(C)C)c4)cc3)c2cc1OC
- time to death of most cells in well [1]: > 7
- time to death of most cells in well ([2]; screen: 2): > 7
- time to death of most cells in well ([2]; screen: 3): > 7
- time to death of most cells in well ([2]; screen: 4): > 7

Compound: O=C(/C=C/c1ccc2ccccc2n1)c1ccncc1
- time to death of most cells in well [1]: 3
- time to death of most cells in well ([2]; screen: 2): 0.5
- time to death of most cells in well ([2]; screen: 3): 0.5
- time to death of most cells in well ([2]; screen: 4): 0.5
